This note sets out measurements from article PMC3511376, “Glycosaminoglycans Are Interactants of Langerin: Comparison with gp120 Highlights an Unexpected Calcium-Independent Binding Mode” (PLoS ONE, 2012).

For this assay, the target named is T1, HIV-1 envelope glycoprotein gp120 (YU2) (HIV-1 (YU2)).
T1 construct: Surface glycoprotein gp120 of the HIV-1 envelope polyprotein, strain YU2; glycosylated (mannose-rich)
As to the kind of experiment: SPR; BIAcore 3000, CM4 chip; gp120YU2 amine-coupled (514 RU for the Lg-CRD chip, 838 RU for the Lg-ECD chip), BSA control flow cell; Langerin injected at 20 µl/min; running buffer 150 mM NaCl, 25 mM Tris pH 7.8, 4 mM CaCl2, 0.005% P20; regeneration with 50 mM EDTA; 1:1 Langmuir fit for Lg-CRD, EC50 from titration for Lg-ECD. To be noted: both partners purified.

B1: Langerin extracellular domain (ECD) (domain or fragment)
chain: not shown
notes: Langerin, human; entire extracellular domain (neck domain and C-terminal CRD), trimeric; also called Langerin ECD; Lg ECD
As a reminder, the EC50 is the concentration that produces a half-maximal response. A low value points to greater potency. B1: the EC50 was ~282 nM.
